# The supplement of paper PMC3334620
# The full ranking holds about 33,000 sequences; the median of “E-score (-0.5 to 0.5)” is about -0.041, and the highest 2% start at about 0.37. Some of the results follow.
# Molecular target: T1, Ecm22 (UniProt Q05958)
# T1 sequence: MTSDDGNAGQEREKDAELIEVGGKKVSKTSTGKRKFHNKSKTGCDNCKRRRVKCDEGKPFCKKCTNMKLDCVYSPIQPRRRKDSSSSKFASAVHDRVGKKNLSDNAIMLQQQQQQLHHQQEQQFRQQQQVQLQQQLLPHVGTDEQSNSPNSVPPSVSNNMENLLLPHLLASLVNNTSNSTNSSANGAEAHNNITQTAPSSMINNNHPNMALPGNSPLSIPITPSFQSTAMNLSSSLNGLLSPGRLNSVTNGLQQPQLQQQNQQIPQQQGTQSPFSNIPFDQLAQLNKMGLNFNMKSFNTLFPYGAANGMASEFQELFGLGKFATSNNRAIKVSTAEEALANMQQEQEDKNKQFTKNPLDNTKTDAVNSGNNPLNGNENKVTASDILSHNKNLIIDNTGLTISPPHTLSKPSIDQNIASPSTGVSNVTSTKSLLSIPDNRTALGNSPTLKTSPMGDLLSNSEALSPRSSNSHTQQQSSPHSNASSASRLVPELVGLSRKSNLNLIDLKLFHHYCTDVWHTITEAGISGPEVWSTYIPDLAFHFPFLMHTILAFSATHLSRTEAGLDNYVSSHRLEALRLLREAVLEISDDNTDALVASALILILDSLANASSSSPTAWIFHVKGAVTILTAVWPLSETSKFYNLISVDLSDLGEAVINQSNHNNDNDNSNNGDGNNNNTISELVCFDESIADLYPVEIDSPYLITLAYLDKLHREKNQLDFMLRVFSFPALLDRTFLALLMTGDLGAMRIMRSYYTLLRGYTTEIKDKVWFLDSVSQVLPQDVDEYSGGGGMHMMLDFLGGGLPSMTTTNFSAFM
# Assay: PBM E-score (8-mer binding enrichment) (E-score (-0.5 to 0.5)); higher = stronger / more preferred TF binding; most listed sequences are background and not binding sites
# Details: protein concentration: 200 nM; construct: GST-full length
# Procedure, shortened: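 Yeast transcription factors, full-length or as DNA-binding domains, were expressed with a GST tag using PURExpress in vitro transcription/translation. At about 100-200 nM they were applied to universal all-10-mer Agilent arrays, double-stranded by primer extension on fresh or once-stripped slides. Fluorescent anti-GST detected bound protein, and masliner normalised the scans. E-scores for ungapped eight-base words, pooled with reverse complements, came from the Universal PBM Analysis Suite.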
row,Sequence,PBM E-score
1,AGAATTTC,0.0483
2,GGATCGAC,0.0502
3,ACCGTACG,0.385
4,ACAACCCT,0.0246
5,ATTTGAAA,-0.0418
6,ACATCAAA,-0.0956
7,CCAAAGGA,-0.169
8,CCAGGTAG,-0.235
9,CAGTCCAC,-0.229
10,ATCAGGAT,0.201
11,CTTCAAAG,-0.128
12,ATGTACAG,-0.0973
13,GCTTATCC,0.0216
14,CAATTCGA,0.0138
15,CGACGTAG,0.0865
16,CAGTTTTA,-0.181
17,ACTAAAGA,-0.0113
18,ACCCTAGA,-0.0449
19,CGTGAGGA,-0.134
20,ACTCAACA,-0.109
21,GGACCGCA,-0.00768
22,AGACGCAG,-0.0192

row,Sequence,PBM E-score
1,CTTACCGC,0.027
2,CTACCAAC,0.0568
3,AGTTACCC,0.0506
4,GCCAATGA,-0.193
5,GACGCTGC,-0.121
6,AACTCCTA,-0.059
7,AGATATTG,-0.149
8,GAGGACTC,-0.139
9,CCGTTTGC,0.212
10,CAAGGCAC,-0.123
11,GTAGTTCA,-0.0814
12,CCCCGGGC,-0.274
13,CTGTGGAC,-0.295
14,TATAAGCA,0.0538
15,GTACCTGA,0.149
16,AAGCACTG,0.0316
17,AATATGCT,0.019
18,ACGAATCA,0.302
19,CGGCCATC,-0.22
20,CAATCCTC,-0.148
21,TAATGTGA,-0.00382
22,ATGGAGCC,-0.206

row,Sequence,PBM E-score
1,AGAAGTTG,-0.00704
2,AGTGGGGG,-0.368
3,CACCGGCG,-0.0848
4,AATACTGT,0.158
5,AACCTGAT,-0.0867
6,AATATAAG,0.0324
7,CCAGCTTA,-0.123
8,GGCAGAGA,-0.119
9,TGACGCAA,-0.215
10,AACTGCAT,-0.00243
11,ATTTTGCG,0.193
12,CCGTCGAG,0.00911
13,GCGCCCCC,-0.25
14,AAATAATT,0.00596
15,AAGGGTTA,-0.0464
16,AGTAAAAA,-0.142
17,GCTCTGTA,-0.0048
18,AGTAGGGA,-0.121
19,CTACGCTC,-0.114
20,ATCTCCTC,-0.0702
21,AATATTCC,-0.0245
22,AATGAACC,-0.208

row,Sequence,PBM E-score
1,ACCACCGT,0.267
2,ACGGGGGG,0.0925
3,AGCCTCAC,-0.175
4,CGGCGCAC,-0.0575
5,CCGAATGA,0.191
6,ATGCGCAT,0.027
7,AATAGTAC,0.284
8,CGATGAGC,0.0666
9,ATCGGGCG,-0.141
10,CGTTTGAA,0.275
11,CGTACGAG,0.473
12,GCGTGAAC,0.183
13,CTATGAAG,-0.125
14,AAGGTGGC,-0.0479
15,CAAATCGA,-0.05
16,ATACGTTC,0.318
17,GGTGCTTA,-0.157
18,ACTCTATC,-0.12
19,CCGCAATA,0.0155
20,CAACAAAG,0.0253
